Assay results from EPA's CvTdb concentration-time database.
The source gives many values for each of these; only a part stands here.

What was measured:
Rat [1] = test: concentration in brain after dosing; details: 0.5 h; dosed: 2-Methyltetrahydrofuran; 30 mg/kg; oral; Female; F344
Rat [2] = test: concentration in brain after dosing; details: 20 min; dosed: 2-Methyltetrahydrofuran; 30 mg/kg; oral; Female; F344
Rat [3] = test: concentration in brain after dosing; details: 4 h; dosed: 2-Methyltetrahydrofuran; 400 mg/kg; oral; Female; Harlan Sprague Dawley
Rat [4] = test: concentration in brain after dosing; details: 12 h; dosed: 2-Methyltetrahydrofuran; 400 mg/kg; oral; Female; Harlan Sprague Dawley
Rat [5] = test: concentration in brain after dosing; details: 5 min; dosed: 2-Methyltetrahydrofuran; 400 mg/kg; oral; Male; F344
Rat [6] = test: concentration in brain after dosing; details: 0.75 h; dosed: 2-Methyltetrahydrofuran; 400 mg/kg; oral; Male; F344
Rat [7] = test: concentration in brain after dosing; details: 2 min; dosed: 2-Methyltetrahydrofuran; 30 mg/kg; oral; Male; F344
Rat [8] = test: concentration in brain after dosing; details: 0.5 h; dosed: 2-Methyltetrahydrofuran; 10 mg/kg; oral; Female; F344
Rat [9] = test: concentration in brain after dosing; details: 8 min; dosed: 2-Methyltetrahydrofuran; 10 mg/kg; oral; Female; F344
Rat [10] = test: concentration in brain after dosing; details: 0.75 h; dosed: 2-Methyltetrahydrofuran; 30 mg/kg; oral; Female; F344
Rat [11] = test: concentration in brain after dosing; details: 6 h; dosed: 2-Methyltetrahydrofuran; 100 mg/kg; oral; Female; Harlan Sprague Dawley
Rat [12] = test: concentration in brain after dosing; details: 5 min; dosed: 2-Methyltetrahydrofuran; 400 mg/kg; oral; Male; F344; remark: listed apart in the source
Rat [13] = test: concentration in brain after dosing; details: 0.75 h; dosed: 2-Methyltetrahydrofuran; 30 mg/kg; oral; Male; F344
Rat [14] = test: concentration in brain after dosing; details: 10 min; dosed: 2-Methyltetrahydrofuran; 10 mg/kg; oral; Female; F344
Rat [15] = test: concentration in plasma after dosing; details: 3 h; dosed: 2-Methyltetrahydrofuran; 30 mg/kg; oral; Male; F344
Rat [16] = test: concentration in plasma after dosing; details: 5 min; dosed: 2-Methyltetrahydrofuran; 100 mg/kg; oral; Female; Harlan Sprague Dawley
Rat [17] = test: concentration in plasma after dosing; details: 1 h; dosed: 2-Methyltetrahydrofuran; 10 mg/kg; iv; Female; F344
Rat [18] = test: concentration in plasma after dosing; details: 0.75 h; dosed: 2-Methyltetrahydrofuran; 30 mg/kg; oral; Male; F344
Rat [19] = test: concentration in plasma after dosing; details: 5 min; dosed: 2-Methyltetrahydrofuran; 400 mg/kg; oral; Male; F344
Rat [20] = test: concentration in plasma after dosing; details: 2 min; dosed: Bromochloroacetic acid; 10 mg/kg; iv; Male; F344
Rat [21] = test: concentration in plasma after dosing; details: dosed: Bromochloroacetic acid, 100 mg/kg, oral, Male, F344
Rat [22] = test: concentration in plasma after dosing; details: dosed: Fluorotelomer alcohol 8+2, 160 mg/kg, oral, Female, Harlan Sprague Dawley
Rat [23] = test: concentration in plasma after dosing; details: dosed: Fluorotelomer alcohol 8+2, 48 mg/kg, oral, Male, Harlan Sprague Dawley
Rat [24] = test: concentration in plasma after dosing; details: dosed: Fluorotelomer alcohol 8+2, 48 mg/kg, oral, Male, Harlan Sprague Dawley; remark: listed apart in the source
Rat [25] = test: concentration in plasma after dosing; details: dosed: Formamide, 36 mg/kg, oral, Male, Harlan Sprague Dawley
Rat [26] = test: concentration in plasma after dosing; details: dosed: Formamide, 300 mg/kg, oral, Female, Harlan Sprague Dawley
Rat [27] = test: concentration in plasma after dosing; details: dosed: Formamide, 300 mg/kg, oral, Female, Harlan Sprague Dawley; remark: listed apart in the source
Rat [28] = test: concentration in plasma after dosing; details: dosed: Formamide, 90 mg/kg, iv, Male, Harlan Sprague Dawley
Rat [29] = test: concentration in plasma after dosing; details: dosed: Formamide, 36 mg/kg, oral, Female, Harlan Sprague Dawley
Rat [30] = test: concentration in plasma after dosing; details: dosed: Formamide, 300 mg/kg, oral, Female, Harlan Sprague Dawley; remark: listed apart in the source
Rat [31] = test: concentration in plasma after dosing; details: dosed: Formamide, 90 mg/kg, iv, Male, Harlan Sprague Dawley; remark: listed apart in the source
Rat [32] = test: concentration in plasma after dosing; details: dosed: Formamide, 36 mg/kg, oral, Male, Harlan Sprague Dawley; remark: listed apart in the source
Rat [33] = test: concentration in plasma after dosing; details: dosed: Formamide, 90 mg/kg, iv, Male, Harlan Sprague Dawley; remark: listed apart in the source
Rat [34] = test: concentration in plasma after dosing; details: dosed: Formamide, 300 mg/kg, oral, Female, Harlan Sprague Dawley; remark: listed apart in the source
Rat [35] = test: concentration in plasma after dosing; details: dosed: Formamide, 90 mg/kg, iv, Male, Harlan Sprague Dawley; remark: listed apart in the source
Rat [36] = test: concentration in plasma after dosing; details: dosed: Formamide, 600 mg/kg, oral, Female, Harlan Sprague Dawley
Rat [37] = test: concentration in plasma after dosing; details: dosed: Formamide, 30 mg/kg, iv, Female, F344
Rat [38] = test: concentration in plasma after dosing; details: 20 min; dosed: Pyridine; 200 mg/kg; oral; Female; F344

CC1CCCO1 (stereo not given) [2-Methyltetrahydrofuran]
Details	concentration in brain [µg/g]	concentration in plasma [µg/mL]
Rat [1]	11.1	–
Rat [2]	10.8	–
Rat [3]	64.9	–
Rat [4]	2.37	–
Rat [5]	222	–
Rat [6]	153	–
Rat [7]	2.25	–
Rat [8]	2.29	–
Rat [9]	3.05	–
Rat [10]	2.58	–
Rat [11]	1.79	–
Rat [12]	135	–
Rat [13]	11	–
Rat [14]	4.13	–
Rat [15]	–	1.66
Rat [16]	–	36.8
Rat [17]	–	1.99
Rat [18]	–	15.4
Rat [19]	–	169

O=C(O)C(Cl)Br (stereo not given) [Bromochloroacetic acid]
Details	concentration in plasma [µg/mL]
Rat [20]	20.5

Rat [21]
Details	concentration in plasma [µg/mL]
1.5 h	22.6
2 min	2.14

OCCC(F)(F)C(F)(F)C(F)(F)C(F)(F)C(F)(F)C(F)(F)C(F)(F)C(F)(F)F [Fluorotelomer alcohol 8+2]
concentration in plasma [µg/mL]
Details	0.75 h	3 h	5 min	12 h
Rat [22]	–	1.77	0.0404	–
Rat [23]	0.187	–	–	0.0253
Rat [24]	–	0.361	0.00476	–

NC=O [Formamide]
Details	concentration in plasma [µg/mL]
Rat [25], 0.25 h	20.6
Rat [25], 5 h	50.7
Rat [26], 0.5 h	170
Rat [26], 48 h	28
Rat [27], 10 min	3.7
Rat [27], 20 h	4
Rat [28], 0.25 h	115
Rat [28], 24 h	22.6
Rat [29], 0.5 h	32.4
Rat [29], 48 h	2.4
Rat [30], 1 h	192
Rat [30], 72 h	13
Rat [31], 10 min	155
Rat [31], 18 h	45.5
Rat [32], 0.5 h	30.3
Rat [32], 48 h	6.6
Rat [33], 10 min	146
Rat [33], 18 h	43.1
Rat [34], 0.5 h	198
Rat [34], 48 h	76.3
Rat [35], 1 h	166
Rat [35], 3 h	154
Rat [36], 2 h	558
Rat [36], 5 min	164
Rat [37], 1 h	42.6
Rat [37], 3 h	31.6

c1ccncc1 [Pyridine]
Details	concentration in plasma [µg/mL]
Rat [38]	57.1
